Experimental data reported in publication PMC5803408 (Structure (London, England : 1993), 2018).

Molecular target: T1, human UHRF1 TTD-PHD dual domains (residues 126-366) D142A/E153A (human, UniProt Q96T88 126-366, D142A | E153A)
T1 sequence (looked up): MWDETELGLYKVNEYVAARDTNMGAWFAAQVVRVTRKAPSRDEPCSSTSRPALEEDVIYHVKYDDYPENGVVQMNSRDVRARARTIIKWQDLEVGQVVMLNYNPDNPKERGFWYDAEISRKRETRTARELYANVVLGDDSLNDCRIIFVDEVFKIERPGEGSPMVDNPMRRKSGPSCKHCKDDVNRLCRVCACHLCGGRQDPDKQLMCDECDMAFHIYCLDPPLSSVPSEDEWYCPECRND
Experiment: ITC

fold reduction of affinity against wild-type TTD-PHD: ~4 fold
B1: histone H3 peptide ([…]) trimethylated at lysine 9, followed by a C-terminal tyrosine (peptide)
peptide: not shown
modifications: trimethyl-lysine at 9
